# Measurements reported in PubChem BioAssay AID686978 (National Center for Advancing Translational Sciences (NCATS), 2013).
# “And” between values parts separate entries of the source, which are not always exact repeats. Identical values can stand only once. In all, about 420,000 compounds went through this assay and about 64,000 (15%) were called active. This list was built around the results that the source calls inconclusive (neither active nor inactive); the mix of calls is not that of the screen. Calls come from the whole dose curve; as a rule, active = well fitted inhibition curve with a large enough effect; inconclusive = small, poorly fitted or top-dose-only effect; inactive = flat fitted curve, though single readings scatter. A potency beside an inconclusive call is a rough fit, not a confirmed value.
# Assay: qHTS for Inhibitors of human tyrosyl-DNA phosphodiesterase 1 (TDP1): qHTS in cells in absence of CPT; note: nearly all actives have a fitted effect of over 55% in size
# Conditions: DT40 Tdp1-/- hTDP1 cells, no CPT, ATP luminescence, 48 h; activity change, negative = growth inhibition: at 46.2 µM (top of the series) unless noted
# Summary of the method: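 No-CPT arm: Tdp1-/-;hTDP1 DT40 cells (400/well) plus compounds, incubated ≥48 hr at 37 °C. Readout CellTiter-Glo luminescence.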
# % is set by controls: 0 for no effect and ±100 for the full control effect; potency is the fitted concentration of half-maximal effect; tags give direction and shape of the fitted curve.
SMILES,"activity change, negative = growth inhibition",Potency
Cn1c(N2CCOCC2)nc(-c2ccccc2)c1-c1ccccc1,inconclusive: -32.9% [inhibitor],
COc1ccc(NC(=S)N2CCC(c3ccc(C)cc3)C2)cc1 (configuration not stated),,"inconclusive: 16.4 µM [inhibitor, partial curve]"
COc1ccc(-c2c(C#N)c(SCC(=O)Nc3ccccc3)nc3c2CCCC3)cc1,,"inconclusive: 29.1 µM [inhibitor, single point]"
COc1ccc(S(=O)(=O)N2CC=C(c3ccccc3)CC2)cc1OC,,active: 23.1 µM
O=C(C1CCCN(S(=O)(=O)c2ccc(F)cc2)C1)N1CCCCCC1 (configuration not stated),,active: 8.2 µM
Cc1cc(C)cc(N2C(=O)CSC23C(=O)N(CC(N)=O)c2ccccc23)c1 (configuration not stated),,inactive
CCc1nn(C(C)C(=O)N2CCN(c3ccc(OC)cc3)CC2)c(=O)c2cc3occc3n12 (configuration not stated),,active: 7.31 µM
O=c1cc(N2CCCCC2)c(-c2ccccc2)nn1Cc1ccc(Cl)cc1,,"inconclusive: 29.1 µM [inhibitor, single point]"
CC(C)c1ccc(S(=O)(=O)N2CCN(C(=O)CN3C(=O)NC4(CCCC4)C3=O)CC2)cc1,,inactive
Cn1cnnc1SCCCN1C(=O)c2cccc3cccc(c23)C1=O,,inactive
Cc1[nH]nc2nc(SCC(=O)NCCC3=CCCCC3)n(-c3ccc(Br)cc3)c(=N)c12,,active: 8.2 µM
C[C@H]1CN([C@@H](C)CO)C(=O)c2cccc(NC(=O)c3nc4ccccc4s3)c2O[C@H]1CN(C)C(=O)Nc1ccc(F)cc1,,"inconclusive: 29.1 µM [inhibitor, single point]"
CN(C)c1ccc(-c2nc3ccc(Cl)cn3c2Nc2ccc3c(c2)OCCO3)cc1,,active: 14.6 µM
COCCCn1c(=O)c2sccc2n(Cc2cc(C(=O)OC)ccc2OC)c1=O,,inactive
O=C(NCCCO)/C(=C/c1ccc(-c2cccc([N+](=O)[O-])c2)o1)NC(=O)c1ccccc1,,inactive
Cc1cnc(CNc2nc(-c3ccc4c(c3)OCO4)nc3ccccc23)cn1,,inactive
COc1ccccc1OCC(=O)Nc1ccccc1C(=O)Nc1cccc(C(=O)O)c1,,inactive
Cc1ccc(OCc2ccc(C(=O)NN)o2)c([N+](=O)[O-])c1,,inactive
COCCN(Cc1ccc(C)c(Br)c1)S(=O)(=O)c1ccc2[nH]c(=O)ccc2c1,,"inconclusive: 16.4 µM [inhibitor, single point]"
CCOCCCNC(=O)Cn1ncc2c([nH]c3ccc(C)cc32)c1=O,,inactive
Cc1noc(/C=C/N(C)C)c1S(=O)(=O)N1CCC(C(=O)NC(C)(C)C)CC1,,inactive
Cc1c(C(=O)NCc2ccccc2C(F)(F)F)sc(=O)n1Cc1ccc2c(c1)OCO2,,"inconclusive: 29.1 µM [inhibitor, single point]"
CN1CCN(c2ccc(NC(=O)c3ccc4ccccc4c3)cc2)CC1,,"inconclusive: 29.1 µM [inhibitor, single point]"
O=C1/C(=C\c2cccnc2)Sc2ccccc21,,active: 20.6 µM

SMILES,"activity change, negative = growth inhibition",Potency
CN(C)c1ccc(-c2cc(NC=O)c3ncc(-c4ccc(F)c(Cl)c4)n3c2)cc1,,"inconclusive: 20.6 µM [inhibitor, single point]"
CC(=O)N1CCc2cc(Br)cc(S(=O)(=O)CCC(=O)N3CCN(c4cccc(C)c4C)CC3)c21,,"inconclusive: 23.1 µM [inhibitor, single point]"
CCOc1ccccc1C(=O)NCC(=O)NCC(C)(C)N1CCOCC1,,inactive
c1ccc2c(c1)OCC(CNc1ncnc3sccc13)O2 (configuration not stated),,active: 0.651 µM
COc1ccc(-c2cc(C(F)(F)F)nc(S(=O)(=O)CCCC(=O)Nc3cc(C)on3)n2)cc1OC,,active: 1.16 µM
CCOC(=O)c1ccc(NC(=O)c2cc(=O)c3ccc(C)c(C)c3o2)cc1,,"inconclusive: 14.6 µM [inhibitor, single point]"
Cc1cc(C(C)(C)C)oc1C(=O)N(CC(=O)NC1CCCC1)Cc1ccccc1Cl,,active: 13 µM
COc1ccc2nc(NC(=O)Cc3cccs3)sc2c1,,"inconclusive: 29.1 µM [inhibitor, single point]"
COc1ccc(CNC(=O)COC(=O)c2c(NC(C)=O)sc(C)c2C)cc1OC,,active: 23.1 µM
COc1ccc(-c2nc(N)nc(N)n2)c(O)c1,,active: 16.4 µM
CN1CCN(C(c2ccc(Cl)cc2)c2cc(Cl)c3cccnc3c2O)CC1 (configuration not stated),,active: 16.4 µM
Cn1c(CCN2CCN(c3ccccc3)CC2)nc2cc(NC(=O)c3ccco3)ccc21,,"inconclusive: 25.9 µM [inhibitor, single point]"
Cc1c(C(=O)NCCn2ccc3ccccc32)cccc1[N+](=O)[O-],,"inconclusive: 16.4 µM [inhibitor, partial curve, poor fit]"
Cc1ccc(-n2ncc3c(Nc4ccc(Oc5ccccc5)cc4)ncnc32)cc1,,"inconclusive: 18.4 µM [inhibitor, single point]"
Cc1cc(C)n(-c2ccc(C(=O)Nc3ccccc3N3CCOCC3)cc2)n1,,"inconclusive: 16.4 µM [inhibitor, single point]"
O=[N+]([O-])c1c(NCCCO)cc(Sc2ccc(Cl)cc2)c2nonc12,,active: 1.46 µM
COC(=O)/C=C1\NCCNC1=O,,inactive
CCCOc1ccc(NC(=O)CC2C(=O)N(CC)C(=S)N2Cc2cccs2)cc1 (configuration not stated),,"inconclusive: 14.1 µM [inhibitor, single point]"
CCOC(=O)c1sc2nc(CC(=O)OC)nc(NCc3ccc(Cl)cc3)c2c1C,,active: 5.8 µM
CN(C)c1cccc(C(=O)N2CCCC(CCC(=O)N3CCN(c4ccccn4)CC3)C2)c1 (configuration not stated),,"inconclusive: 29.1 µM [inhibitor, single point]"
Cc1cc(=O)[nH]c(SCC(=O)OCc2ccccc2)c1C#N,,inactive
O=C1CCC[C@@H]2C[C@@]3(C[C@@H]4CCN1[C@H]24)Nc1cc(Cl)ccc1NC3=NCc1ccccc1,,"inactive and inconclusive: 28.2 µM [inhibitor, single point]"
CC/C(=N\NC(=O)c1c(C)nc2ccccn12)c1ccccc1,,"inconclusive: 20.6 µM [inhibitor, single point]"
